From ChEMBL document CHEMBL4888484, “Replenishing the malaria drug discovery pipeline: Screening and hit evaluation of the MMV Hit Generation Library 1 (HGL1) against asexual blood stage Plasmodium falciparum ,using a nano luciferase reporter read-out” (2022)
The campaign covered roughly 150,000 compounds. About 540 (0.36%) showed an effect of 50% or more. This is one part of the list.

System: Plasmodium falciparum
Assay: Primary screen in NF54 nanoGlo assay, in single point, at 2uM, 72h; a lower Z score goes with more inhibition
Format: functional, Erythrocyte
Details: timepoint 72 hour

Which results are given for `Cc1nc(Nc2ccccn2)sc1C(=O)NC1CCC(C)CC1` (stereo not drawn)?
% Inhibition: -5%; Z score: 0.75

Which “% Inhibition” value does the source give for `O=C(O)c1ccccc1-c1nccc(C2CCCC2)n1` here?
The value was -11%.

And the Z score?
The Z score was 2.1.

`CO[C@H]1CCOC[C@@H]1NC(=O)C1Cc2ccccc2C1` was tested. Which “% Inhibition” value did it give?
Its value is -8%.

And the Z score?
The Z score was 1.58.

With `Cc1noc(C)c1CCC(=O)Nc1nc2ccccc2s1` as the molecule, how does the “% Inhibition” value read?
The value was -9%.

What about the Z score of the same molecule?
Its Z score is 1.29.

What does the source list for `Cc1cnc(CN2CCCC[C@H]2C(=O)NCC(F)F)s1`?
% Inhibition: 4%; Z score: -0.68

`CN(CCO)S(=O)(=O)c1cnc(NCCO)c(C(F)(F)F)c1` was tested. Which “% Inhibition” value did it give?
Its value is -1%.

And the Z score?
Its Z score is 0.11.

Which “% Inhibition” value does the source give for `CCO[C@H]1CN(C)C[C@@H]1n1cnc2cccc(Cl)c2c1=O` here?
Its value is 4%.

What about the Z score of the same molecule?
The Z score was -0.67.

Which results are given for `CC1CCC(NC(=O)Nc2cccc(-c3nnco3)c2)CC1` (stereo not drawn)?
% Inhibition: -13%; Z score: 1.21

`COc1cccc(OCc2nc(CCN)n(C(C)(C)C)n2)c1` was tested. Which “% Inhibition” value did it give?
The value was -16%.

What about the Z score of the same molecule?
The Z score was 1.41.

What does the source list for `Cc1cc(C)n(CCN2CCCN(C(=O)c3cc(-c4ccccc4)n[nH]3)CC2)n1`?
% Inhibition: -8%; Z score: 1.48

What does the source list for `CCc1nn(C)cc1NC(=O)N(C)[C@@H](C)c1ccco1`?
% Inhibition: -7%; Z score: 1.1

Which “% Inhibition” value does the source give for `COC(=O)Nc1cccc(OS(=O)(=O)c2cccnc2)c1` here?
The value was -5%.

And the Z score?
Its Z score is 0.68.

With `COCCN1CCCC(NC(C)c2ccc(OC)c(F)c2)C1` (stereo not drawn) as the molecule, how does the “% Inhibition” value read?
Its value is -3%.

What about the Z score of the same molecule?
Its Z score is 0.37.

For `O=C(c1ccc(Oc2ccccc2)cc1)[C@H]1CCCN(C(=O)CCc2cccnc2)C1`, which “% Inhibition” value is on record?
Its value is -7%.

And the Z score?
The Z score was 0.95.

`CCc1nc(C)sc1C(=O)NCc1cc2n(n1)CCNC2` was tested. Which “% Inhibition” value did it give?
Its value is -10%.

And the Z score?
The Z score was 0.95.

Which “% Inhibition” value does the source give for `CCCc1nnc2c(=O)n(CC(=O)Nc3cc(C)ccc3OC)c3ccccc3n12` here?
The value was -2%.

What about the Z score of the same molecule?
The Z score was 0.36.

Which “% Inhibition” value does the source give for `Cc1ccc(C(=O)NC2CC3CCC2C3)c(C2CCN(C(=O)c3cccc(Br)c3)CC2)n1` (stereo not drawn) here?
The value was -9%.

What about the Z score of the same molecule?
The Z score was 1.28.

`CCOc1ccc(NC(=O)CNC(=O)c2cn(-c3ccccc3OC)c(=O)c3ccccc23)cc1` was tested. Which “% Inhibition” value did it give?
Its value is -1%.

And the Z score?
The Z score was 0.09.

Which results are given for `C=C(C)CNc1ccccc1Br`?
% Inhibition: -10%; Z score: 1.47

How did the “% Inhibition” value turn out when `O=C(CCC(F)(F)F)N1CCO[C@@H](CC(c2ccccc2)c2ccccc2)C1` was run?
Its value is -10%.

And the Z score?
The Z score was 1.2.

Which results are given for `O=C(NC[C@H](OCCO)c1cccs1)c1ccc2c(c1)OCO2`?
% Inhibition: -14%; Z score: 1.57

What does the source list for `NC(=O)c1ccc(CN2CCNC(=O)[C@@H]2c2cccc(F)c2)cc1`?
% Inhibition: -11%; Z score: 1.82

Which “% Inhibition” value does the source give for `CCOC(=O)CNC(=O)NCCn1nnc2cc(S(=O)(=O)N(C)C)ccc21` here?
The value was -2%.

And the Z score?
Its Z score is 0.26.

How did the “% Inhibition” value turn out when `Cn1c(C(=O)N2CCn3nc(Cc4ccccc4)cc3C2)cc2ccccc21` was run?
Its value is -10%.

And the Z score?
The Z score was 1.3.

With `O=C(N[C@H]1CCc2nccn2C1)c1cc2c(s1)CCCC2` as the molecule, how does the “% Inhibition” value read?
Its value is -14%.

And the Z score?
Its Z score is 2.98.

`COC(=O)CN1CCC(Oc2cncc(Cl)c2)CC1` was tested. Which “% Inhibition” value did it give?
The value was -1%.

And the Z score?
The Z score was 0.1.

Which results are given for `CCNC(=O)N1CCN(C(=O)c2ccc(N3CCCC3)nc2)CC1`?
% Inhibition: -17%; Z score: 3.2

`O=C(Nc1cncc(Cl)c1)N[C@@H]1C=CCCC1` was tested. Which “% Inhibition” value did it give?
Its value is -12%.

And the Z score?
The Z score was 2.31.

What does the source list for `Fc1ccc(COc2ccc3ccccc3c2CNc2ccc(Br)cc2)cc1`?
% Inhibition: 36%; Z score: -0.9

For `COc1ccc(C)c(NC(=O)N2CCN(C(=O)OC(C)(C)C)C[C@@H]2C)c1`, which “% Inhibition” value is on record?
Its value is -7%.

And the Z score?
Its Z score is 0.79.

Which results are given for `COc1ccc(C(=O)N2C[C@H]3CC[C@@H](C2)N(CC2CC2)C3=O)cc1O`?
% Inhibition: -21%; Z score: 1.96

Which results are given for `Cc1ccc(NS(=O)(=O)c2cc3[nH]c4c(c3cc2C)C(=O)CC(C)(C)C4)c(C)c1`?
% Inhibition: -9%; Z score: 1.78

What does the source list for `COC(=O)CC1(NC(=O)Nc2cc(Cl)ccc2Cl)CCS(=O)(=O)CC1`?
% Inhibition: 4%; Z score: -0.59

Which results are given for `O=C1Cc2cccc(-c3ccc(C4(O)CCC4)cc3)c2N1`?
% Inhibition: -12%; Z score: 2.46

For `C[C@]1(c2ccccc2)CCC(=O)N(CCOCCO)C1`, which “% Inhibition” value is on record?
The value was -5%.

And the Z score?
Its Z score is 0.89.

`O=C(O)Cc1csc(NC(=O)C2CC2c2ccc3c(c2)OCCO3)n1` (stereo not drawn) was tested. Which “% Inhibition” value did it give?
The value was -3%.

And the Z score?
The Z score was 0.36.

With `Cc1cc(C)n(CC(=O)NCc2cccc(Cl)c2)c1-c1nc(C2CC2)no1` as the molecule, how does the “% Inhibition” value read?
The value was -5%.

And the Z score?
The Z score was 0.74.

`C#CCCC1(CCC(=O)N2CCC[C@H](c3ccc(F)c(F)c3)C2)N=N1` was tested. Which “% Inhibition” value did it give?
The value was -13%.

And the Z score?
The Z score was 1.57.

What does the source list for `O=C(NCCc1ccccn1)[C@@H]1CCN(c2ccc(Br)cc2F)C1=O`?
% Inhibition: -9%; Z score: 1.08

`Cc1cccc(Oc2nc3ccccc3n3c(=O)n(CC(=O)NCc4ccc(Cl)cc4)nc23)c1C` was tested. Which “% Inhibition” value did it give?
Its value is 32%.

What about the Z score of the same molecule?
The Z score was -4.6.

Which results are given for `CC(C)N(C)S(=O)(=O)NC[C@H]1CCCO1`?
% Inhibition: 5%; Z score: -0.55

For `O=C(N[C@H]1CCN(c2ccc(-c3ccccc3F)nn2)C1)c1ccc2c(c1)OCO2`, which “% Inhibition” value is on record?
Its value is -26%.

And the Z score?
Its Z score is 5.03.

With `O=C(CN1CCN(c2cccc(Cl)c2)C1=O)NCc1cccnc1` as the molecule, how does the “% Inhibition” value read?
Its value is 2%.

And the Z score?
The Z score was -0.29.

Which results are given for `Cc1nc(C)c(CNC(=O)c2cc(C)c(Br)cc2C)o1`?
% Inhibition: -4%; Z score: 0.5

For `C=CCN(CC1CCCCC1)C(=O)[C@H](C)N`, which “% Inhibition” value is on record?
Its value is 2%.

What about the Z score of the same molecule?
The Z score was -0.23.

Which “% Inhibition” value does the source give for `Clc1ccccc1-c1cc(COc2ccc3ccccc3c2)no1` here?
The value was 1%.

What about the Z score of the same molecule?
The Z score was -0.1.

How did the “% Inhibition” value turn out when `Cc1cc(OCC(=O)Nc2ccccc2)nc2c1c(-c1ccccc1)nn2-c1ccccc1` was run?
Its value is 0%.

What about the Z score of the same molecule?
Its Z score is -0.02.

Which “% Inhibition” value does the source give for `C[C@@H](C(=O)N(C)Cc1cccc(F)c1)N(C)Cc1ccc2c(c1)OCO2` here?
Its value is -12%.

And the Z score?
The Z score was 1.08.

`CC1CCC(NC(=O)CN[C@@H](CO)C2CC2)CC1` (stereo partly drawn) was tested. Which “% Inhibition” value did it give?
The value was 6%.

And the Z score?
Its Z score is -1.23.

What does the source list for `Cc1nccn1CCCC(=O)NC(c1cnn(C)c1)[C@H]1C[C@@H](O)C1` (stereo partly drawn)?
% Inhibition: -7%; Z score: 1.45

For `CC1CCN(S(=O)(=O)c2ccc3[nH]cc(C(=O)NCc4ccco4)c(=O)c3c2)CC1`, which “% Inhibition” value is on record?
Its value is 2%.

What about the Z score of the same molecule?
Its Z score is -0.19.

Which “% Inhibition” value does the source give for `CC(C)(C)c1cc(NC(=O)c2ccc(F)cc2Cl)n([C@H]2CCS(=O)(=O)C2)n1` here?
Its value is -12%.

What about the Z score of the same molecule?
Its Z score is 1.55.

With `Cc1cc([C@]2(C(F)(F)F)NCCNC2=O)cc(C)c1O` as the molecule, how does the “% Inhibition” value read?
Its value is -16%.

And the Z score?
The Z score was 2.06.

With `CCn1cc(CNC(=O)C2=NN(c3ccccc3)[C@H](C(N)=O)C2)cn1` as the molecule, how does the “% Inhibition” value read?
The value was -21%.

And the Z score?
The Z score was 1.9.
